# The other results are listed elsewhere or left out.
# Molecular target: T1, OsWOX13 (Oryza sativa, UniProt Q5QMM3 1-267)
# T1 sequence: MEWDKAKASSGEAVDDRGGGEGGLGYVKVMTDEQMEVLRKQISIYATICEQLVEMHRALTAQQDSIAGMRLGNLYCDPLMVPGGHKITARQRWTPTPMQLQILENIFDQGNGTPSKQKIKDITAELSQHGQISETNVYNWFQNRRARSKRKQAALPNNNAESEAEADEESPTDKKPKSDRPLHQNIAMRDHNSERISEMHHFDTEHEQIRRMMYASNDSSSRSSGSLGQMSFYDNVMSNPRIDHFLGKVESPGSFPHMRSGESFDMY
# Assay: protein-binding microarray (RPBM); PBS, 2% BSA, 51.3 ng/ul salmon testes DNA, 50 uM zinc acetate, 200 nM TF, 25 C, 1 h; high values mean tight binding
# Conditions: protein: recombinant; tags: N-terminal polyhistidine and DsRed monomer fusion (pET32a); label: CyDye5-dUTP incorporated in the synthesized complementary strand; 3' TTTTT single-stranded linker to array surface; dsDNA, one strand shown
# How it was run: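 Transcription factors, each fused N-terminally to a polyhistidine tag and DsRed, were expressed in E. coli BL21-CodonPlus and purified on Ni–NTA. A custom Agilent array was made double-stranded by primer extension with Cy5-dUTP and blocked with 2% BSA. It was incubated with 200 nM protein in PBS, 2% BSA, salmon testes DNA and 50 µM zinc acetate at 25 °C for 1 h, then washed. The binding signal is per-feature fluorescence intensity (arbitrary units) read on an Axon 4000B scanner.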
row,Sequence,binding signal
1,ACATAATTACAATTTCAACCAAATTTTCAATTTTAGCTTGCGGAGTCACCTAGTGCAG,23700 fluorescence intensity (a.u.)
2,CGGCCAAAATTGTAATTAGCCCCTTGCCGCCCTCTGTATGCGGAGTCACCTAGTGCAG,10400 fluorescence intensity (a.u.)
3,TTCTTCTGCACATAATTTGTATTTGATGCACTAACCAAGTCGGAGTCACCTAGTGCAG,3790 fluorescence intensity (a.u.)
4,AGATTAACAAAATTTTGAAGGATGTTTTCTACCAAATGCCCGGAGTCACCTAGTGCAG,6050 fluorescence intensity (a.u.)
5,GATTTAATTATATAGTCCCACATTTCTCTTGGATTGTTTACGGAGTCACCTAGTGCAG,14800 fluorescence intensity (a.u.)
6,CAAATAGTAAATTACTACTCCAGTGAAAATATAGTACTGCCGGAGTCACCTAGTGCAG,6260 fluorescence intensity (a.u.)
7,AAAACTCAATCAAATTGGGCCGTCCCTCCCCTTTCTCTTCCGGAGTCACCTAGTGCAG,5810 fluorescence intensity (a.u.)
8,TAGAGATTTGACAAGACGACATTCCCCTAGACAGTGTTCTCGGAGTCACCTAGTGCAG,4390 fluorescence intensity (a.u.)
9,CTCCGGTTTAATTTTAATTGATGTTTTGGACAATGGCACGCGGAGTCACCTAGTGCAG,44900 fluorescence intensity (a.u.)
10,CAAGCAATGATTGGATTGGATGCTGACGATGAAACGAACCCGGAGTCACCTAGTGCAG,20700 fluorescence intensity (a.u.)
11,TGGTAACTAAACTGCCATGTCAGGGACAGATCGACCAGTGCGGAGTCACCTAGTGCAG,4990 fluorescence intensity (a.u.)
12,ACACTAACAAATCAATTTTCTCTACCCACCACTCCTGAATCGGAGTCACCTAGTGCAG,8890 fluorescence intensity (a.u.)
13,CCTAACAGTGATTTCACCTTGTTACTCTGCAGGTGGCCGACGGAGTCACCTAGTGCAG,18600 fluorescence intensity (a.u.)
14,TTGATTAAGTTTATAGATAAATATAGTAATATTTACAGTACGGAGTCACCTAGTGCAG,10000 fluorescence intensity (a.u.)
15,AATAGATTATATACAATAAACAAACGGACATTCACTCGCGCGGAGTCACCTAGTGCAG,9220 fluorescence intensity (a.u.)
16,ACAGGCTGATTAAACAAGGTTTGCGCAATTTCACTTACCACGGAGTCACCTAGTGCAG,4490 fluorescence intensity (a.u.)
17,TCTGATCATCTTTAATTTCTTAGATGACTAGTTTTAAAACCGGAGTCACCTAGTGCAG,11000 fluorescence intensity (a.u.)
18,TTCTGATAGGGAGGTAGTACATACTCTCTCTACTCCAAAACGGAGTCACCTAGTGCAG,3600 fluorescence intensity (a.u.)
19,TATAAACTCTGATTTAATTATTTCTGAAGTAAACTTATTTCGGAGTCACCTAGTGCAG,13600 fluorescence intensity (a.u.)
20,GTTTTCCTAATTAATTGCTAGCTCGATTTGCTCGGTGATCCGGAGTCACCTAGTGCAG,29900 fluorescence intensity (a.u.)
21,TATGGTTATAATTTTATTGATATAAATAGTATATAAGAAACGGAGTCACCTAGTGCAG,3500 fluorescence intensity (a.u.)
22,TCTAGGATTTAAATTTATACACAATATAAATACTCTAAGACGGAGTCACCTAGTGCAG,3590 fluorescence intensity (a.u.)
23,TTGTCCATCACAATTGCTAATTAACTAAGACACCCTTCCTCGGAGTCACCTAGTGCAG,21100 fluorescence intensity (a.u.)
24,ACTGATTACTTAATTGGAAATTTGGAATGATTCAATCCATCGGAGTCACCTAGTGCAG,41500 fluorescence intensity (a.u.)
25,TGTATCAATTGACACATTCTATATTATGAAGATAAGTACCCGGAGTCACCTAGTGCAG,16000 fluorescence intensity (a.u.)
26,ATTTATTTTGTGATTGTATGGAGAGCTTCTCTCAGAAGTCCGGAGTCACCTAGTGCAG,4770 fluorescence intensity (a.u.)
27,TATAAATTTATCTAAAGTAACAACTTTCATAATTTATTGTCGGAGTCACCTAGTGCAG,16400 fluorescence intensity (a.u.)

row,Sequence,binding signal
1,GTTCATTCGCATAATTGCCTCAATCTATTGTGTGTTCATACGGAGTCACCTAGTGCAG,10800 fluorescence intensity (a.u.)
2,AGCCTAATTAATCCGATATTAGTAAATGTTTACTGTAGCACGGAGTCACCTAGTGCAG,15000 fluorescence intensity (a.u.)
3,TTTTATAAATTTATAGTACTAATACTAACAATTAAAACTCCGGAGTCACCTAGTGCAG,7430 fluorescence intensity (a.u.)
4,ATTAATTGTGAAGAGCTAACTATTATATGGATAGGATGAGCGGAGTCACCTAGTGCAG,34400 fluorescence intensity (a.u.)
5,CAAAATGGGATTAGAACCGTTCTATCTTGGTAGGTAAGATCGGAGTCACCTAGTGCAG,3870 fluorescence intensity (a.u.)
6,TATTCTAATTTGTTGTATCATATCCCATTCCGATCGTTTACGGAGTCACCTAGTGCAG,8640 fluorescence intensity (a.u.)
7,TATTCTAAATTAACTCTAATTCGAGTATTCAACCGACATCCGGAGTCACCTAGTGCAG,8800 fluorescence intensity (a.u.)
8,ATGTAAACTGCAAATGATATTCTAGAGATGAAAAGCTCAGCGGAGTCACCTAGTGCAG,9830 fluorescence intensity (a.u.)
9,TCTATATGAAATCAATCAATTCGAATATTCAAATTCTAAACGGAGTCACCTAGTGCAG,4930 fluorescence intensity (a.u.)
10,AATTGATTATACACAAGTTCCTATAGAAGATACATATAACCGGAGTCACCTAGTGCAG,9410 fluorescence intensity (a.u.)
11,TTGTTATATTGACATATTCGCATGGTAGTAACTAATTGCGCGGAGTCACCTAGTGCAG,17000 fluorescence intensity (a.u.)
12,TGTCAAATCATGACGCAATTAGGCTCAGAAGATTCGTCTCCGGAGTCACCTAGTGCAG,13000 fluorescence intensity (a.u.)
13,AGAGAATGACAGATTGGCCCGATCGATTTGTTCTCCGGCACGGAGTCACCTAGTGCAG,30400 fluorescence intensity (a.u.)
14,AGCAAATCACAGATCAATTTGTACCAGTACATCTATAAGACGGAGTCACCTAGTGCAG,14700 fluorescence intensity (a.u.)
15,TTATACAGATTGCGACTAATTTGCGAGACGAATCTTTTAACGGAGTCACCTAGTGCAG,12300 fluorescence intensity (a.u.)
16,CCCTCTCATCCTTAGGTTTGATTGTTGAGTACGAGCCAAACGGAGTCACCTAGTGCAG,3420 fluorescence intensity (a.u.)
17,ATATATATATATATATATATATATATATATATATATATATCGGAGTCACCTAGTGCAG,3960 fluorescence intensity (a.u.)
18,ATATGATATGATATGATATGCACGCACAGAAACCGTATAACGGAGTCACCTAGTGCAG,4500 fluorescence intensity (a.u.)
19,ATCACCTGATTACAAATTAAGCAGTTCCACTGAAACCATTCGGAGTCACCTAGTGCAG,19100 fluorescence intensity (a.u.)
20,ATGGGTGATTATGCTCTTGATGAACTTCATCACGGTGTAGCGGAGTCACCTAGTGCAG,32500 fluorescence intensity (a.u.)
21,GTAAACTTGTCACTCAGCTTTAACCACAAGATTACAGATACGGAGTCACCTAGTGCAG,3410 fluorescence intensity (a.u.)
22,TATACAATACATAGATAGATAGATAGCTTGAATTGAAGGGCGGAGTCACCTAGTGCAG,5940 fluorescence intensity (a.u.)
23,ACTTGATTGAAATCGAAGCATCTGTTTTCGCGTGTTTGAGCGGAGTCACCTAGTGCAG,59900 fluorescence intensity (a.u.)
24,GCCATGATTTATGAGATCAAGTAGTGGTCACTTTATATACCGGAGTCACCTAGTGCAG,6470 fluorescence intensity (a.u.)
25,TGTTGACTGTTATTTTATTTATCTCTCGCCTAAATAAGTACGGAGTCACCTAGTGCAG,12000 fluorescence intensity (a.u.)
26,GATAATGAAATTGCTATATATTTATCGACAAATTTTCTCTCGGAGTCACCTAGTGCAG,12900 fluorescence intensity (a.u.)
27,AATAATTAGTGGTTTGCAGCTTACAAACTTACAATTTACACGGAGTCACCTAGTGCAG,8430 fluorescence intensity (a.u.)
